The list shows a part of the results.
Legend:
Experiment in all cases: glycan array binding signal (z-score within array); higher = stronger binding
Conditions in all cases: glycan notation: IUPAC condensed, linker removed
[1] = molecular target: Fuc(a1-2)Gal(b1-4)[Fuc(a1-3)]GlcNAc
How it was run: (§1)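 The binding signal is a Z-score computed within each array. Data were drawn from 3228 arrays in the Consortium for Functional Glycomics database, restricted to those with a known protein sequence. Scores were averaged over arrays of the same protein sequence at different concentrations or buffers, and over linkers, and negative values can be taken as non-binding.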

[2] = molecular target: Fuc(a1-2)Gal(b1-4)[Fuc(a1-3)]GlcNAc(b1-2)Man(a1-3)[Fuc(a1-2)Gal(b1-4)[Fuc(a1-3)]GlcNAc(b1-2)Man(a1-6)]Man(b1-4)GlcNAc(b1-4)[Fuc(a1-6)]GlcNAc
How it was run: as §1

[3] = molecular target: Fuc(a1-2)Gal(b1-4)[Fuc(a1-3)]GlcNAc(b1-2)[Fuc(a1-2)Gal(b1-4)[Fuc(a1-3)]GlcNAc(b1-4)]Man(a1-3)[Fuc(a1-2)Gal(b1-4)[Fuc(a1-3)]GlcNAc(b1-2)Man(a1-6)]Man(b1-4)GlcNAc(b1-4)GlcNAc
How it was run: as §1

[4] = molecular target: Fuc(a1-2)Gal(b1-4)[Fuc(a1-3)]GlcNAc(b1-3)Gal(b1-4)[Fuc(a1-3)]GlcNAc
How it was run: as §1

[5] = molecular target: Fuc(a1-2)Gal(b1-4)[Fuc(a1-3)]GlcNAc(b1-3)Gal(b1-4)[Fuc(a1-3)]GlcNAc(b1-3)Gal(b1-4)[Fuc(a1-3)]GlcNAc
How it was run: as §1

[6] = molecular target: Fuc(a1-2)Gal(b1-4)[Fuc(a1-3)]GlcNAc(b1-3)GalNAc
How it was run: as §1

[7] = molecular target: Fuc(a1-2)Gal(b1-4)[Fuc(a1-3)]GlcNAc(b1-3)[Neu5Ac(a2-6)Gal(b1-4)GlcNAc(b1-6)]Gal(b1-4)Glc
How it was run: as §1

[8] = molecular target: Fuc(a1-2)Gal3S(b1-4)GlcNAc
How it was run: as §1

[9] = molecular target: Fuc(a1-2)Gal6S(b1-3)GlcNAc
How it was run: as §1

[10] = molecular target: Fuc(a1-2)Gal6S(b1-3)GlcNAc6S
How it was run: as §1

[11] = molecular target: Fuc(a1-2)Gal6S(b1-4)Glc
How it was run: as §1

[12] = molecular target: Fuc(a1-2)Gal6S(b1-4)Glc6S
How it was run: as §1

[13] = molecular target: Fuc(a1-2)GlcNAc
How it was run: as §1

[14] = molecular target: Fuc(a1-2)[Gal(a1-3)]Gal
How it was run: as §1

[15] = molecular target: Fuc(a1-2)[Gal(a1-3)]Gal(b1-3)GalNAc
How it was run: as §1

[16] = molecular target: Fuc(a1-2)[Gal(a1-3)]Gal(b1-3)GalNAc(b1-3)Gal(a1-4)Gal(b1-4)Glc
How it was run: as §1

[17] = molecular target: Fuc(a1-2)[Gal(a1-3)]Gal(b1-3)GlcNAc
How it was run: as §1

[18] = molecular target: Fuc(a1-2)[Gal(a1-3)]Gal(b1-3)GlcNAc(b1-2)Man(a1-3)[Fuc(a1-2)[Gal(a1-3)]Gal(b1-3)GlcNAc(b1-2)Man(a1-6)]Man(b1-4)GlcNAc(b1-4)GlcNAc
How it was run: as §1

[19] = molecular target: Fuc(a1-2)[Gal(a1-3)]Gal(b1-3)GlcNAc(b1-2)Man(a1-3)[Fuc(a1-2)[Gal(a1-3)]Gal(b1-3)GlcNAc(b1-2)Man(a1-6)]Man(b1-4)GlcNAc(b1-4)[Fuc(a1-6)]GlcNAc
How it was run: as §1

[20] = molecular target: Fuc(a1-2)[Gal(a1-3)]Gal(b1-3)GlcNAc(b1-3)GalNAc
How it was run: as §1

[21] = molecular target: Fuc(a1-2)[Gal(a1-3)]Gal(b1-3)GlcNAc(b1-6)GalNAc
How it was run: as §1

[22] = molecular target: Fuc(a1-2)[Gal(a1-3)]Gal(b1-4)Glc
How it was run: as §1

[23] = molecular target: Fuc(a1-2)[Gal(a1-3)]Gal(b1-4)GlcNAc
How it was run: as §1

[24] = molecular target: Fuc(a1-2)[Gal(a1-3)]Gal(b1-4)GlcNAc(b1-2)Man
How it was run: as §1

[25] = molecular target: Fuc(a1-2)[Gal(a1-3)]Gal(b1-4)GlcNAc(b1-2)Man(a1-3)[Fuc(a1-2)[Gal(a1-3)]Gal(b1-4)GlcNAc(b1-2)Man(a1-6)]Man(b1-4)GlcNAc(b1-4)GlcNAc
How it was run: as §1

[26] = molecular target: Fuc(a1-2)[Gal(a1-3)]Gal(b1-4)GlcNAc(b1-2)Man(a1-3)[Fuc(a1-2)[Gal(a1-3)]Gal(b1-4)GlcNAc(b1-2)Man(a1-6)]Man(b1-4)GlcNAc(b1-4)[Fuc(a1-6)]GlcNAc
How it was run: as §1

[27] = molecular target: Fuc(a1-2)[Gal(a1-3)]Gal(b1-4)GlcNAc(b1-3)GalNAc
How it was run: as §1

[28] = molecular target: Fuc(a1-2)[Gal(a1-3)]Gal(b1-4)GlcNAc(b1-3)[Fuc(a1-2)[Gal(a1-3)]Gal(b1-4)GlcNAc(b1-6)]GalNAc
How it was run: as §1

[29] = molecular target: Fuc(a1-2)[Gal(a1-3)]Gal(b1-4)GlcNAc(b1-6)GalNAc
How it was run: as §1

[30] = molecular target: Fuc(a1-2)[Gal(a1-3)]Gal(b1-4)[Fuc(a1-3)]Glc
How it was run: as §1

[31] = molecular target: Fuc(a1-2)[Gal(a1-3)]Gal(b1-4)[Fuc(a1-3)]GlcNAc
How it was run: as §1

[32] = molecular target: Fuc(a1-2)[Gal(a1-3)]Gal(b1-4)[Fuc(a1-3)]GlcNAc(b1-3)GalNAc
How it was run: as §1

[33] = molecular target: Fuc(a1-2)[Gal(a1-4)]Gal(b1-4)GlcNAc
How it was run: as §1

[34] = molecular target: Fuc(a1-2)[GalNAc(a1-3)]Gal
How it was run: as §1

[35] = molecular target: Fuc(a1-2)[GalNAc(a1-3)]Gal(b1-3)GalNAc(a1-3)[Fuc(a1-2)]Gal(b1-4)GlcNAc
How it was run: as §1

[36] = molecular target: Fuc(a1-2)[GalNAc(a1-3)]Gal(b1-3)GalNAc(b1-3)Gal(a1-4)Gal(b1-4)Glc
How it was run: as §1

[37] = molecular target: Fuc(a1-2)[GalNAc(a1-3)]Gal(b1-3)GlcNAc
How it was run: as §1

[38] = molecular target: Fuc(a1-2)[GalNAc(a1-3)]Gal(b1-3)GlcNAc(b1-2)Man(a1-3)[Fuc(a1-2)[GalNAc(a1-3)]Gal(b1-3)GlcNAc(b1-2)Man(a1-6)]Man(b1-4)GlcNAc(b1-4)GlcNAc
How it was run: as §1

B1: MAA (Maackia amurensis), P0DKL3 (protein)
chain: MATSNSKPTQVLLATFLTFFFLLLNNVNSSDELSFTINNFVPNEADLLFQGEASVSSTGVLQLTRVENGQPQKYSVGRALYAAPVRIWDNTTGSVASFSTSFTFVVKAPNPDITSDGLAFYLAPPDSQIPSGSVSKYLGLFNNSNSDSSNQIVAVELDTYFAHSYDPWDPNYRHIGIDVNGIESIKTVQWDWINGGVAFATITYLAPNKTLIASLVYPSNQTTFSVAASVDLKEILPEWVRVGFSAATGYPTEVETHDVLSWSFTSTLEANCDAATENNVHIARYTA
- glycan array binding signal (z-score) [1]: -0.161
- glycan array binding signal (z-score) [2]: -0.211
- glycan array binding signal (z-score) [3]: -0.128
- glycan array binding signal (z-score) [4]: -0.122
- glycan array binding signal (z-score) [5]: -0.059
- glycan array binding signal (z-score) [6]: 0.506
- glycan array binding signal (z-score) [7]: -0.23
- glycan array binding signal (z-score) [8]: -0.223
- glycan array binding signal (z-score) [9]: -0.348
- glycan array binding signal (z-score) [10]: -0.391
- glycan array binding signal (z-score) [11]: -0.187
- glycan array binding signal (z-score) [12]: -0.191
- glycan array binding signal (z-score) [13]: -0.214
- glycan array binding signal (z-score) [14]: -0.152
- glycan array binding signal (z-score) [15]: -0.207
- glycan array binding signal (z-score) [16]: -0.232
- glycan array binding signal (z-score) [17]: -0.153
- glycan array binding signal (z-score) [18]: -0.258
- glycan array binding signal (z-score) [19]: -0.172
- glycan array binding signal (z-score) [20]: -0.241
- glycan array binding signal (z-score) [21]: -0.253
- glycan array binding signal (z-score) [22]: -0.094
- glycan array binding signal (z-score) [23]: -0.238
- glycan array binding signal (z-score) [24]: -0.22
- glycan array binding signal (z-score) [25]: -0.165
- glycan array binding signal (z-score) [26]: -0.241
- glycan array binding signal (z-score) [27]: -0.135
- glycan array binding signal (z-score) [28]: -0.217
- glycan array binding signal (z-score) [29]: -0.242
- glycan array binding signal (z-score) [30]: -0.197
- glycan array binding signal (z-score) [31]: -0.118
- glycan array binding signal (z-score) [32]: 0.203
- glycan array binding signal (z-score) [33]: -0.171
- glycan array binding signal (z-score) [34]: -0.204
- glycan array binding signal (z-score) [35]: -0.24
- glycan array binding signal (z-score) [36]: -0.284
- glycan array binding signal (z-score) [37]: -0.251
- glycan array binding signal (z-score) [38]: -0.217

— the supplement of paper PMC8728848
